According to PubChem BioAssay AID624418 (National Center for Advancing Translational Sciences (NCATS), 2012):
Hit rate of the full screen: of about 410,000 compounds, about 530 (0.13%) were called active. Inconclusive means that the source gave no clear call. Such entries were picked first, then a sample of the others. Calls follow the shape of the dose curve; as a rule, active = well fitted inhibition curve with a large enough effect; inconclusive = small, poorly fitted or top-dose-only effect, or another doubt; inactive = no such curve, though single readings can be large or run the other way. A potency beside an inconclusive call is a rough fit, not a confirmed value.

Experiment: qHTS of GLP-1 Receptor Inverse Agonists: Cytotox Screen
Settings: HEK293 cAMP-luciferase reporter cells, luminescence, 24 h; activity change, negative = inhibition: at 38.3 µM (top of the series) unless noted
Outline: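 1536-well qHTS counterscreen of the MLSMR; 200 cells/uL, 12 h pre-incubation, 23 nL cpd, 24 h at 37 deg C 5% CO2, luciferase detection reagent, 12 min RT, luminescence. Inhibition = undesired.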
% is scaled to controls: 0 for no effect and ±100 for the full control effect; potency is read from the fitted curve at half-maximal effect.

For `COc1ccc(CCN(Cc2cc3ccc(C)cc3[nH]c2=O)C(C)=O)cc1OC`, which Potency is on record?
The Potency was inconclusive: 14.1 µM [inhibitor, single point].

For `COc1cc2c(cc1OC)-c1cc(Nc3ccccc3Br)nc(=O)n1CC2`, which “activity change, negative = inhibition” value is on record?
The value was inactive: -6.55%.

For `CCc1nc2c(OCc3ccc(Cl)cc3Cl)cccn2c1N(C)C(=O)c1ccccc1F`, which Potency is on record?
The Potency was inconclusive: 12.6 µM [inhibitor, single point].

Which Potency does the source give for `COc1ccc(-n2nc(C(=O)NCC(=O)NCc3ccco3)c3ccccc3c2=O)cc1Cl` here?
The Potency was inconclusive: 0.891 µM [inhibitor, full curve, poor fit].

For `CCCCCCCC(=O)N/N=C(\C)c1ccc(O)cc1O`, which Potency is on record?
Its Potency is inconclusive: 2.51 µM [inhibitor, partial curve, poor fit].

With `CCOc1ccc(-n2ccnc2SCC(=O)Nc2nnc(C)s2)cc1` as the molecule, how does the Potency read?
Its Potency is inconclusive: 12.6 µM [inhibitor, partial curve, poor fit].

With `Cc1ccc(C)c(NC(=S)NCc2cccs2)c1` as the molecule, how does the Potency read?
The Potency was inconclusive: 28.2 µM [inhibitor, single point].

For `Cc1ccc(CNC(=O)C2CCN(S(=O)(=O)c3c(C)noc3/C=C/c3ccco3)CC2)cc1`, which Potency is on record?
Its Potency is inconclusive: 4.47 µM [inhibitor, partial curve, poor fit].

For `CCOC(=O)C1(CCOc2ccccc2)CCN(Cc2ccncc2)CC1`, which “activity change, negative = inhibition” value is on record?
Its value is inactive: 7.43%.

With `Cc1oc2cc([N+](=O)[O-])c(O)c([N+](=O)[O-])c2c1C(=O)c1ccc(Br)cc1` as the molecule, how does the Potency read?
Its Potency is inconclusive: 11.2 µM [inhibitor, partial curve].

With `COC(=O)c1ccc(OCC2c3cc(OC)c(OC)cc3CCN2C(=O)c2ccco2)cc1` (stereo unspecified) as the molecule, how does the Potency read?
The Potency was inconclusive: 6.31 µM [inhibitor, partial curve, poor fit].

With `CCCCn1c(-c2ccccc2)cnc1SCC(=O)NCCc1ccc(OC)c(OC)c1` as the molecule, how does the Potency read?
The Potency was inconclusive: 28.2 µM [inhibitor, single point].

With `O=[N+]([O-])c1ccc(N/N=C/c2cccc(O)c2O)cc1` as the molecule, how does the Potency read?
The Potency was inconclusive: 10 µM [inhibitor, partial curve].

With `CC(C)c1ccccc1NC(=S)NC(C)c1ccccc1` (stereo unspecified) as the molecule, how does the Potency read?
The Potency was inconclusive: 10 µM [inhibitor, partial curve, poor fit].

Which Potency does the source give for `O=C(Oc1c(-c2ccccc2)c(=O)n2c3c(cccc13)CC2)c1ccccc1` here?
Its Potency is inconclusive: 3.55 µM [inhibitor, partial curve].

With `O=C1/C(=C/c2ccc(N3CCOCC3)o2)SC(=Nc2ccccc2)N1CCc1c[nH]c2ccccc12` as the molecule, how does the Potency read?
The Potency was inconclusive: 12.6 µM [inhibitor, partial curve, poor fit].
